The densities may have been worked out from excess volumes.
Assay: xn = mol fraction of the nth substance listed
Conditions: 100 kPa

O=S(=O)(O)O + CCCCCCCC[n+]1ccn(C)c1.O=S(=O)([O-])C(F)(F)F
x2 = 0
Conditions	mass density [kg/m3]
303.2 K	1826
313.2 K	1814

O=S(=O)(O)O + CCCCCC[n+]1ccn(C)c1.O=S(=O)([O-])C(F)(F)F
x2 = 0
Conditions	mass density [kg/m3]
293.2 K	1834
298.2 K	1830
303.2 K	1826
308.2 K	1821
313.2 K	1814

O=S(=O)(O)O + CCCC[n+]1ccn(C)c1.O=S(=O)([O-])C(F)(F)F
mass density [kg/m3]
Conditions	293.2 K	298.2 K	303.2 K	308.2 K	313.2 K
x2 = 0	1834	1830	–	1821	–
x2 = 0.0036	1824	–	1817	1812	1806
x2 = 0.0104	1810	1805	1800	–	–
x2 = 0.0176	–	1788	–	–	1777
x2 = 0.0364	1755	–	–	1741	1739
x2 = 0.0532	1717	1712	–	1704	–
x2 = 0.1	1646	1641	1636	–	–
x2 = 0.2	1538.4	1533.7	–	–	1519.8
x2 = 0.3	1469	–	1460.2	–	1451.3
x2 = 0.4	1422.9	1418.6	1414.4	1410.1	–
x2 = 0.5	1389.4	1385.3	–	1377.1	–
x2 = 0.6	1365	1361	1357	1352.9	1348.9
x2 = 0.7	1344.5	1340.5	1336.5	1332.4	1328.4
x2 = 0.8	1327.8	1323.8	1319.8	1315.8	1311.9
x2 = 0.9	–	–	–	1302.3	–

Source: a compilation of properties of binary mixtures (doi:10.1016/j.cjche.2018.02.001)
